Results: PubChem BioAssay AID588591 (National Center for Advancing Translational Sciences (NCATS), 2011)
Among all 390,000 compounds or so, about 4,700 (1.2%) were called active. Inconclusive means that the source gave no clear call. Such entries were picked first, then a sample of the others. Calls come from the whole dose curve; as a rule, active = well fitted inhibition curve with a large enough effect; inconclusive = small, poorly fitted or top-dose-only effect, or another doubt; inactive = no such curve, though single readings can be large or run the other way. Where the call is inconclusive, the potency comes from a doubtful curve fit.

Molecular target: DNA polymerase eta (Homo sapiens) (UniProt Q9Y253)
Assay: qHTS for Inhibitors of Polymerase Eta
Conditions: recombinant Pol eta, fluorescent DNA replication assay; series mostly up to 114 µM; activity change, negative = inhibition: at the top concentration
Procedure, shortened: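 Pol eta (10 nM) was preincubated with compounds for 15 min at room temperature, after which fluorescent replication substrate (50 nM final) was added to start the reaction. Fluorescence was read kinetically at 0 and 10 min.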
% is set by controls: 0 for no effect and ±100 for the full control effect; potency is the fitted concentration of half-maximal effect; tags give direction and shape of the fitted curve.

Sequence of UniProt Q9Y253 (Q9Y253 whole entry, looked up): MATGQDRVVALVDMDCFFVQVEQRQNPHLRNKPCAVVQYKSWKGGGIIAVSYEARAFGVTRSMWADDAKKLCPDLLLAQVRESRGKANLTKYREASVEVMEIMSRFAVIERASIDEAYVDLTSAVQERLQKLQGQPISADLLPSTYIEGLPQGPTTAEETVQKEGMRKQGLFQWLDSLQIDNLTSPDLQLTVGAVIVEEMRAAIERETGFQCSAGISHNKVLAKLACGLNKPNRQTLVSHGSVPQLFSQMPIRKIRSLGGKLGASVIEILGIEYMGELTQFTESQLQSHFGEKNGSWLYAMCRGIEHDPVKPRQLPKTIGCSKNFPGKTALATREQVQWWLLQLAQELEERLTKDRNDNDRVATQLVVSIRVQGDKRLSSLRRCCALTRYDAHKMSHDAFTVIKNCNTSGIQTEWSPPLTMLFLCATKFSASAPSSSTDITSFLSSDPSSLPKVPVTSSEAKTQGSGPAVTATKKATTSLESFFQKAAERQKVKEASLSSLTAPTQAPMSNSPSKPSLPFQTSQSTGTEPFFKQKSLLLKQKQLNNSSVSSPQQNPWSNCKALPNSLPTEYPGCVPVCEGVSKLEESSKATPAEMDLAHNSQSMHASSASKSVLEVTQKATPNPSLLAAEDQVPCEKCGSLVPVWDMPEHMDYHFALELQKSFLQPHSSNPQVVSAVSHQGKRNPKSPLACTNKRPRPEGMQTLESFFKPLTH

| SMILES | Potency | activity change, negative = inhibition |
| --- | --- | --- |
| Cc1cc(C)cc(OCCSc2nc(-c3ccc(C(C)(C)C)cc3)nc3cc(=O)[nH]n23)c1 | inconclusive: 56.2 µM [inhibitor, partial curve, poor fit] | – |
| Cc1ccc(C(=O)NC2(O)C(=O)c3ccccc3C2=O)cc1C | active: 44.7 µM | – |
| C=C(C)C(=O)O[C@H]1C/C(C)=C\C(=O)/C=C(\C)[C@H](O)[C@@H]2OC(=O)C(=C)[C@@H]21 | active: 20 µM | – |
| Oc1c(Br)cc(C=Nc2ccc3nc(-c4ccccc4)[nH]c3c2)c(O)c1Br | active: 14.1 µM | – |
| O=C(O)COc1ccccc1/C=C1\SC(=S)N(c2cccnc2)C1=O | inconclusive: 56.2 µM [inhibitor, partial curve, poor fit] | – |
| O=C(O)/C(=C\c1ccc(Cl)cc1)c1ccc(S(=O)(=O)N2CCCC2)s1 | inconclusive: 12.6 µM [inhibitor, partial curve, poor fit] | – |
| CCn1c(SCC(=O)NCc2ccco2)nc2c(c1=O)SC(C)C2 (stereo not given) | inconclusive: 35.5 µM [inhibitor, partial curve, poor fit] | – |
| N#Cc1sc2nc(-c3ccccc3)cc(-c3ccco3)c2c1N | active: 8.91 µM | – |
| NC(=O)c1ccsc1NC(=O)COC(=O)c1cnccn1 | inconclusive: 20 µM [inhibitor, full curve] | – |
| CC(C)n1c(=NC(=O)c2ccco2)c(C#N)cc2c(=O)n3ccccc3cc21 | inconclusive: 28.2 µM [inhibitor, single point] | – |
| COc1nnc(-c2ccc(N3CCCCC3)c(NC(=O)c3ccc(Cl)cc3)c2)c2ccccc12 | – | inactive: -15.3% |
| Cn1cccc1/C=C1\SC(=Nc2cccc(O)c2)NC1=O | inconclusive: 44.7 µM [inhibitor, partial curve] | – |
| Cc1cc(C)c2oc(C(=O)Nc3ccc(S(=O)(=O)Nc4nccs4)cc3)cc(=O)c2c1 | inconclusive: 56.2 µM [inhibitor, partial curve, poor fit] | – |
| O=C(O)C(=O)/C(=C\c1ccc(Cl)cc1)c1ccc2ccccc2n1 | – | inactive: -3.72% |
| CC(C)(O)c1ccccc1CC[C@@H](SCC1(CC(=O)O)CC1)c1cccc(/C=C/c2ccc3ccc(Cl)cc3n2)c1 | inconclusive: 89.1 µM [inhibitor, single point] | – |
| CCc1ccc(S(=O)(=O)c2cn(CC(=O)Nc3cccc(C)c3)c3ccc(Cl)cc3c2=O)cc1 | inconclusive: 100 µM [inhibitor, partial curve, poor fit] | – |
| O=C(NC(NNc1ccc([N+](=O)[O-])cc1)(C(F)(F)F)C(F)(F)F)c1ccc(Cl)cc1 | – | inactive: -5.47% |
| CCOC(=O)C1CCN(S(=O)(=O)c2ccc3c(c2)CC(=O)N3C)CC1 | inconclusive: 89.1 µM [inhibitor, single point] | – |
| Cc1ccc(S(=O)(=O)N2CCN(C(=O)/C=C/c3ccco3)CC2)cc1 | active: 79.4 µM | – |
| COc1cccc(Cn2cnc3c2c(=O)n(C)c(=O)n3C)c1 | – | inactive: -5.46% |
| O=C(NCc1ccco1)c1cccn2c(=O)c3c4c(sc3nc12)CCCC4 | inconclusive: 31.6 µM [inhibitor, full curve] | – |
| Cc1cc2oc3ccc(NCCCn4ccnc4)cc3c(=O)c2cc1C | active: 56.2 µM | – |
| COc1cc2c(cc1OC)C(c1cc(OC)c(O)c(OC)c1)CC(=O)N2 (stereo not given) | – | inactive: -9.12% |

| SMILES | Potency | activity change, negative = inhibition |
| --- | --- | --- |
| CCN(CCCCCCN)c1ccc2c(=O)[nH][nH]c(=O)c2c1 | active: 79.4 µM | – |
| Cc1c(C(=O)Nc2ccccc2)cn2c(nc3ccccc32)c1C#N | – | inactive: -15.8% |
| O=C(OCc1ccc([N+](=O)[O-])cc1)C1CC(=O)N(CCc2ccccc2)C1 (stereo not given) | – | inactive: -7.26% |
| Nn1c(=S)[nH]c2sc3c(c2c1=O)CCCC3 | – | inactive: -11.6% |
| COc1ccc(/C=C2/CCC(CN3CCOCC3)C2=O)cc1 (stereo not given) | inconclusive: 31.6 µM [inhibitor, partial curve, poor fit] | – |
| Cc1oc(-c2ccc(Cl)cc2)cc1-c1nn2c(-c3ccoc3C)nnc2s1 | active: 4.47 µM | – |
| Cc1nnc(-c2cccc(Br)c2)c2cn(-c3ccc(Br)cc3)nc12 | inconclusive: 35.5 µM [inhibitor, partial curve, poor fit] | – |
| CCOC(=O)c1c(-c2ccc(-c3ccccc3)cc2)csc1NC(=O)CCC(=O)O | inconclusive: 89.1 µM [inhibitor, single point] | – |
| CN(CC(=O)Nc1cccc(F)c1)C(=O)c1cc([N+](=O)[O-])ccc1N1CCCCC1 | inconclusive: 100 µM [inhibitor, partial curve, poor fit] | – |
| NC1=NC(=O)/C(=C/c2cn(CCC(=O)O)nc2-c2ccc(Cl)cc2)S1 | active: 14.1 µM | – |
| c1cncc(-c2cnc3ccccc3c2)c1 | – | inactive: -4.18% |
| CCc1ccc(OCC(=O)Nc2ccc3oc(-c4ccc(OC)cc4)nc3c2)cc1 | inconclusive: 70.8 µM [inhibitor, single point] | – |
| CCC(=O)Nc1cccc(C(=O)/C=C/c2cc(Br)ccc2OC)c1 | inconclusive: 25.1 µM [inhibitor, single point] | – |
| O=C(O)c1ccc(N/N=C/c2ccc(-c3ccc(Cl)cc3Cl)o2)cc1 | inconclusive: 56.2 µM [inhibitor, partial curve, poor fit] | – |
| COc1ccc(/C=C2/N=C(SC3CCOC3=O)N(c3cccc(OC)c3)C2=O)cc1 (stereo not given) | inconclusive: 17.8 µM [inhibitor, single point] | – |
| CC(/C=N/NC(=O)c1cnccn1)=C\c1ccco1 | inconclusive: 44.7 µM [inhibitor, partial curve, poor fit] | – |
| O=C(CSc1nc2ccccc2[nH]1)NC1CCCC1 | active: 39.8 µM | – |
| Cc1c(C(=O)N2CCN(S(=O)(=O)c3ccccc3)CC2)oc2ccccc12 | inconclusive: 15.8 µM [inhibitor, partial curve] | – |
| O=C1CCCCCN1CP(=O)(O)CN1CCCCCC1=O | – | inactive: -2.77% |
| O=C1/C(=C/c2cccnc2)SC(=S)N1NS(=O)(=O)c1ccccc1 | – | inactive: -15.5% |
| COc1ccccc1-c1nnc(NC(=O)c2ccccc2F)o1 | inconclusive: 79.4 µM [inhibitor, partial curve, poor fit] | – |
| Cc1ccc(C)c2sc(NC(=O)CN3C(=O)CCC3=O)nc12 | inconclusive: 100 µM [inhibitor, partial curve, poor fit] | – |
